{
  "source": "the RNAGym collection of RNA variant scans (doi:10.7554/elife.90254)",
  "parents": {"B1": {"name": "LINE1-full (parent)", "chain": "UACGUAGGUGGUUUUCCCCUGAUAGUGCUAAGGGGGCCUGGAAGUUUGGACUGGGCAGAGCUCAACACAGCGUGGCAAAGUGGCUGUGGCUAGACUGCCUCUCUGGAUUCCUCGUCACUCAGCAGGGCAUCUCUGAGAGAAAUGCC"}},
  "note": "Read counts are not given, so values of variants with three or more changes are uncertain.",
  "data": [
    {"variants_of": "B1", "assay": "self-cleavage, relative activity (ratio to wild type); higher = more cleavage; in vitro, sequencing; the parent is a self-cleaving ribozyme", "values": [
      {"variant": "UACGUAGGUGGUUUUCCCCUGAUAGUGCUAAGGGGGCCUGGAAGUUUGGACUGGGCAGAGCUCAACACAGCGUGGCAAAGUGGCUGUGGCCAGACUGCCUCGCUGGAUUCCUCGUCACUCAGCAGGGCAUCUUUGAGAGAAAUGCC", "self-cleavage": 0},
      {"variant": "UACGUAGGUGGUUUUCCCCUGAUAGUGCUAAGGGGGCCUGGAAGUUUGGACUGGGCAGAGCUCAACACAGCGUGGCAAAGUGGCUGUGGUUAGACAGCCUCUCUGGAUUCCUCGUCGCUCAGCAGGGCAUCUCUGAGAGAAAUGCC", "self-cleavage": 0.11},
      {"variant": "UACGUAGGUGGUUUUCCCCUGAUAGUGCUAAGGGGGCCUGGAAGUUUGGACUGGGCAGAGCUCAACACAGCGUGGCAAAGUGGCUGUGGCUGGACUGCUUCUCUGGAUUCCUCGUCACUCAGCAGGGUAUCUCUGAGAGAAAUGCC", "self-cleavage": 0.08},
      {"variant": "UACGUAGGUGGUUUUCCCCUGAUAGUGCUAAGGGGGCCUGGAAGUUUGGACUGGGCAGAGCUCAACACAGCGUGGCAAAGUGGCUGUGGCCAGACUGCCUCUCUGGAUUCCCCUUCACUCAGCAGGGCAUCUCUGAGAGAAAUGCC", "self-cleavage": 0.68},
      {"variant": "UACGUAGGUGGUUUUCCCCUGAUAGUGCUAAGGGGGCCUGGAAGUUUGGACUGGGCAGAGCUCAACACAGCGUGGCAAAGUGGCUGUGGCUGGACUGCCUCUCUGGAUUCCUCGCCACUCAGCAGGGCUUCUCUGAGAGAAAUGCC", "self-cleavage": 0},
      {"variant": "UACGUAGGUGGUUUUCCCCUGAUAGUGCUAAGGGGGCCUGGAAGUUUGGACUGGGCAGAGCUCAACACAGCGUGGCAAAGUGGCUGUGGCCAGACUGCCUCUCUGGAUUCCUCGUCACCCAGCAGGGCAUCCCUGAGAGAAAUGCC", "self-cleavage": 0.34},
      {"variant": "UACGUAGGUGGUUUUCCCCUGAUAGUGCUAAGGGGGCCUGGAAGUUUGGACUGGGCAGAGCUCAACACAGCGUGGCAAAGUGGCUGUGGCCAGACUGCCUCCCUGGAUUCCUCGUCACUCAGCAGGGCAUCUCUGAGAGAAAAGCC", "self-cleavage": 0.66},
      {"variant": "UACGUAGGUGGUUUUCCCCUGAUAGUGCUAAGGGGGCCUGGAAGUUUGGACUGGGCAGAGCUCAACACAGCGUGGCAAAGUGGCUGUGACUAGACUGCCUCUCCGGAUUCCUCGUCACCCAGCAGGGCAUCUCUGAGAGAAAUGCC", "self-cleavage": 0.03},
      {"variant": "UACGUAGGUGGUUUUCCCCUGAUAGUGCUAAGGGGGCCUGGAAGUUUGGACUGGGCAGAGCUCAACACAGCGUGGCAAAGUGGCUGUGGCCUGCCUGCCUCUCUGGAUUCCUCGUCUCUCAGCAGGGCAUCUCUGAGAGAAAUGCC", "self-cleavage": 0.06},
      {"variant": "UACGUAGGUGGUUUUCCCCUGAUAGUGCUAAGGGGGCCUGGAAGUUUGGACUGGGCAGAGCUCAACACAGCGUGGCAAAGUGGCUGUGGCUGGACUGCCUCUCUGGAUUCCACGUCACUCAGCAGGGCAUCUCUGAGAGGAAUGCC", "self-cleavage": 0.29},
      {"variant": "UACGUAGGUGGUUUUCCCCUGAUAGUGCUAAGGGGGCCUGGAAGUUUGGACUGGGCAGAGCUCAACACAGCGUGGCAAAGUGGCUGUGGCUGGACUGCCUCUCCGGAUUCCUCGUCACUCAGCUGGGCGUCUCUGAGAGAAAUGCC", "self-cleavage": 0.46},
      {"variant": "UACGUAGGUGGUUUUCCCCUGAUAGUGCUAAGGGGGCCUGGAAGUUUGGACUGGGCAGAGCUCAACACAGCGUGGCAAAGUGGCUGUGGCUGGACUGCCUCUCUGGAUUCCUCGUCACUCAGCAGGGCAUCUCUGAGGGAAGUGCC", "self-cleavage": 0.07},
      {"variant": "UACGUAGGUGGUUUUCCCCUGAUAGUGCUAAGGGGGCCUGGAAGUUUGGACUGGGCAGAGCUCAACACAGCGUGGCAAAGUGGCUGUGGCCAGACUGCCUCUCCGGAUUCCUGGUCACUCAGCAGGGCAUCUCUGAGAGAAAUGCC", "self-cleavage": 1.78},
      {"variant": "UACGUAGGUGGUUUUCCCCUGAUAGUGCUAAGGGGGCCUGGAAGUUUGGACUGGGCAGAGCUCAACACAGCGUGGCAAAGUGGCUGUGGCUGGACAGCCUCUCUGGAUUCCUCGUCACUCAGCAGGGCAUCUCUGAGAGAAACGCC", "self-cleavage": 0.2},
      {"variant": "UACGUAGGUGGUUUUCCCCUGAUAGUGCUAAGGGGGCCUGGAAGUUUGGACUGGGCAGAGCUCAACACAGCGUGGCAAAGUGGCUGUGGCUGGACUGCCUCUCUGUAUUCCUCGUCACUCAGCAGGGCUUCUCUGAGAGAAAUGCC", "self-cleavage": 0.09},
      {"variant": "UACGUAGGUGGUUUUCCCCUGAUAGUGCUAAGGGGGCCUGGAAGUUUGGACUGGGCAGAGCUCAACACAGCGUGGCAAAGUGGCUGUAGCUAGACUGCCUCUCUGGAUUCCUCGUCACACAGCAGGGCAUCUCUGAGAGAAAUGUC", "self-cleavage": 0.06},
      {"variant": "UACGUAGGUGGUUUUCCCCUGAUAGUGCUAAGGGGGCCUGGAAGUUUGGACUGGGCAGAGCUCAACACAGCGUGGCAAAGUGGCUGUGGCUGGACUACCUCUCUGGAUUCCUCGCCACUCAGCAGGGCAUCUCUGAGAGGAAUGCC", "self-cleavage": 0.03},
      {"variant": "UACGUAGGUGGUUUUCCCCUGAUAGUGCUAAGGGGGCCUGGAAGUUUGGACUGGGCAGAGCUCAACACAGCGUGGCAAAGUGGCUGUUGCUAGACUGCCUCUCUGGAUUCCUCGUCACUCAACAAGGCAUCUCUGAGGGAAAUGCC", "self-cleavage": 0.03},
      {"variant": "UACGUAGGUGGUUUUCCCCUGAUAGUGCUAAGGGGGCCUGGAAGUUUGGACUGGGCAGAGCUCAACACAGCGUGGCAAAGUGGCUGUGGCCAGACUGCCUCUCUGGAUUCCUCGUCACUCAGCAGGGCAUCUCUGAGAGGAUUGCC", "self-cleavage": 0.59},
      {"variant": "UACGUAGGUGGUUUUCCCCUGAUAGUGCUAAGGGGGCCUGGAAGUUUGGACUGGGCAGAGCUCAACACAGCGUGGCAAAGUGGCUGUGGCCAGACUGCCCCUCUGGAUUCCUCGUCACUCAGCUGGGCAUCUCUGAGAGAAAUGCC", "self-cleavage": 0.73},
      {"variant": "UACGUAGGUGGUUUUCCCCUGAUAGUGCUAAGGGGGCCUGGAAGUUUGGACUGGGCAGAGCUCAACACAGCGUGGCAAAGUGGCUGUGGCCAGACUGCCUCUCUGGAUUCCACGUCACUCAGCAGGGCUUCUCUGAGAGAAAUGCC", "self-cleavage": 0.97},
      {"variant": "UACGUAGGUGGUUUUCCCCUGAUAGUGCUAAGGGGGCCUGGAAGUUUGGACUGGGCAGAGCUCAACACAGCGUGGCAAAGUGGCUGUGGCUGGACUGCCUCCCUGGAUUCCUCGUCACUCAGCAGGGCGUCUCUGAGAGGAAUGCC", "self-cleavage": 0},
      {"variant": "UACGUAGGUGGUUUUCCCCUGAUAGUGCUAAGGGGGCCUGGAAGUUUGGACUGGGCAGAGCUCAACACAGCGUGGCAAAGUGGCUGUGGCCAGACUGCCUCUCUGGAUUCCUCGUCACUCAGCAGGGCACCCCUGAGAGAAAUGCC", "self-cleavage": 0.61},
      {"variant": "UACGUAGGUGGUUUUCCCCUGAUAGUGCUAAGGGGGCCUGGAAGUUUGGACUGGGCAGAGCUCAACACAGCGUGGCAAAGUGGCUGUGGCCAGACUGCCUCUCUGGGUUCCUCGUCACUCAGCAGGGCAUCUCUGAGAGGAAUGCC", "self-cleavage": 0.28},
      {"variant": "UACGUAGGUGGUUUUCCCCUGAUAGUGCUAAGGGGGCCUGGAAGUUUGGACUGGGCAGAGCUCAACACAGCGUGGCAAAGUGGCUGUGGCCAGACUGCCACUCUGGAUUCCUUGUCACUCAGCAGGGCAUCUCUGAGAGAAAUGCC", "self-cleavage": 0.18},
      {"variant": "UACGUAGGUGGUUUUCCCCUGAUAGUGCUAAGGGGGCCUGGAAGUUUGGACUGGGCAGAGCUCAACACAGCGUGGCAAAGUGGCUGUGGCCAGACUGCCCCUCAGGAUUCCUCGUCACUCAGCAGGGCAUCUCUGAGAGAAAUGCC", "self-cleavage": 0.72},
      {"variant": "UACGUAGGUGGUUUUCCCCUGAUAGUGCUAAGGGGGCCUGGAAGUUUGGACUGGGCAGAGCUCAACACAGCGUGGCAAAGUGGCUGUGGCCAGACUGCCUCCCUGGAUUACUCGUCACUCAGCAGGGCAUCUCUGAGAGAAAUGCC", "self-cleavage": 0.27},
      {"variant": "UACGUAGGUGGUUUUCCCCUGAUAGUGCUAAGGGGGCCUGGAAGUUUGGACUGGGCAGAGCUCAACACAGCGUGGCAAAGUGGCUGUGGCAAGACUGCCUCUCUGGAUUCCUCGUCACUCUGCAGGGCAUCUCUGAGGGAAAUGCC", "self-cleavage": 0.98},
      {"variant": "UACGUAGGUGGUUUUCCCCUGAUAGUGCUAAGGGGGCCUGGAAGUUUGGACUGGGCAGAGCUCAACACAGCGUGGCAAAGUGGCUGUGGCCCGACUGCCUCUCUGGAUUCCUCGUCACUCAGCAGGGUACCUCUGAGAGAAAUGCC", "self-cleavage": 0.11},
      {"variant": "UACGUAGGUGGUUUUCCCCUGAUAGUGCUAAGGGGGCCUGGAAGUUUGGACUGGGCAGAGCUCAACACAGCGUGGCAAAGUGGCUGUGGGUAGACUGCCUCUCAGGAUUCCUCGUCACUCAGCAGGGCAUCUCUGAGAGAAACGCC", "self-cleavage": 0.07},
      {"variant": "UACGUAGGUGGUUUUCCCCUGAUAGUGCUAAGGGGGCCUGGAAGUUUGGACUGGGCAGAGCUCAACACAGCGUGGCAAAGUGGCUGUGGCUGGACUGCCUUUCUGGAUUCCUCGUCACUCAGCAGGGCAUCUCUGAGAGGAAUGCC", "self-cleavage": 0.05},
      {"variant": "UACGUAGGUGGUUUUCCCCUGAUAGUGCUAAGGGGGCCUGGAAGUUUGGACUGGGCAGAGCUCAACACAGCGUGGCAAAGUGGCUGUAGCUAGACUGCCUCUCUGGAUUCCUCGCCACUCACCAGGGCAUCUCUGAGAGAAAUGCC", "self-cleavage": 0.06},
      {"variant": "UACGUAGGUGGUUUUCCCCUGAUAGUGCUAAGGGGGCCUGGAAGUUUGGACUGGGCAGAGCUCAACACAGCGUGGCAAAGUGGCUGUGGCCAGACUGCCUCUCUGGAUUCCUCCUCACUCAGCAGGGCAUCUCUGAGAGAUAUGCC", "self-cleavage": 0.71},
      {"variant": "UACGUAGGUGGUUUUCCCCUGAUAGUGCUAAGGGGGCCUGGAAGUUUGGACUGGGCAGAGCUCAACACAGCGUGGCAAAGUGGCUGUGGCUGGACUGCCUCUCUGGAUUCCUCGUCACUCAGCAGGGCAUCUCUGAGAGGAACGCC", "self-cleavage": 0.14},
      {"variant": "UACGUAGGUGGUUUUCCCCUGAUAGUGCUAAGGGGGCCUGGAAGUUUGGACUGGGCAGAGCUCAACACAGCGUGGCAAAGUGGCUGUGGCUCGACUGCCUCUCUGGAUUCCUCGUCGCUCAGCAGGGCAUCUCUGAGAGGAAUGCC", "self-cleavage": 0},
      {"variant": "UACGUAGGUGGUUUUCCCCUGAUAGUGCUAAGGGGGCCUGGAAGUUUGGACUGGGCAGAGCUCAACACAGCGUGGCAAAGUGGCUGUGGCUGGACUGCCUCUCUUGAUUCCACGUCACUCAGCAGGGCAUCUCCGAGGGAAAUGCC", "self-cleavage": 0.04},
      {"variant": "UACGUAGGUGGUUUUCCCCUGAUAGUGCUAAGGGGGCCUGGAAGUUUGGACUGGGCAGAGCUCAACACAGCGUGGCAAAGUGGCUGUUGCUAGACUGCCUCUCUGGUCUCCUCGUCACUCAGCAGGGCAUCUCUGAGAGAAAUGCC", "self-cleavage": 0.04},
      {"variant": "UACGUAGGUGGUUUUCCCCUGAUAGUGCUAAGGGGGCCUGGAAGUUUGGACUGGGCAGAGCUCAACACAGCGUGGCAAAGUGGCUGUGGCCAGACUGCCUCUCAGGAUUCCUCGUCACUCAGCAGGGCAUCUCUGAGAGAAAUGCU", "self-cleavage": 0.33},
      {"variant": "UACGUAGGUGGUUUUCCCCUGAUAGUGCUAAGGGGGCCUGGAAGUUUGGACUGGGCAGAGCUCAACACAGCGUGGCAAAGUGGCUGUAGCUAGACUGCCUCUCUGGAUUCCUCGUCACCCAGCAGGCCAUCUCUGAGAGAAACGCC", "self-cleavage": 0.07}
    ]}
  ]
}
